Reference: the supplement of paper PMC12230231
± gives the standard deviation of the averaged measurements. Restriction of a single-cycle SIVsab GFP reporter by TRIM5α v1-loop variants in CRFK cells. Human variants: read share among cells still uninfected after two challenges over input, higher = gained restriction. Rhesus variants: share among infected cells over input, higher = lost restriction. Reporter dose not given per row. No active / inactive call per row; the paper calls a change when both replicates lie above its controls (mean + 2 SD of stop or wild-type variants, or the top frameshift score). Residues outside the varied loop are taken from Swiss-Prot. The paper reads the human single-substitution scores as noise; they and the rhesus combinations repeat poorly (rank correlation 0.3 to 0.4), indel scores repeat only for the top variants, rhesus substitutions well (0.9).

tested on: SIVsab (simian immunodeficiency virus of sabaeus monkeys), single-cycle GFP reporter, in CRFK cells; test: enrichment among uninfected cells over input (fold); higher = stronger restriction; details: library: human / rhesus combinations
Procedure: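 Pools of CRFK cells expressing variants of the TRIM5α v1 loop were challenged with the single-cycle reporter, sorted by GFP and sequenced; mean of two replicates.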

Row | Sequence | enrichment
1 | MASGILVNVKEEVTCPICLELLTQPLSLDCGHSFCQACLTANHKKSMLDKGESSCPVCRISYQPENIRPNRHVANIVEKLREVKLSPEGQKVDHCARHGEKLLLFCQEDGKVICWLCERSQEHRGHHTFLTEEVAREYQVKLQAALEMLRQKQQEAEELEADIREEKASWKTQIQYDKTNVLADFEQLRDILDWEESNELQNLEKEEEDILKSLTNSETEMVQQTQSLRELISDLEHRLQGSVMELLQGVDGVIKRTENVTLKKPETFPKNQRRVFRAPDLKGMLEVFRELTDVRRYWVDVTVAPNNISCAVISEDKRQVSSPKPQIIYQARGTRYTFPSFVNFNYCTGILGSQSITSGKHYWEVDVSKKTAWILGVCAGFQPDAMCNIEKNENYQPKYGYWVIGLEEGVKCSAFQDSSFHTPSVPFIVPLSVIICPDRVGVFLDYEACTVSFFNITNHGFLIYKFSHCSFSQPVFPYLNPRKCGVPMTLCSPSS [human TRIM5α, 330-340 = QARGTRYTFPSFV] | 0.129 ± 0.07
2 | MASGILVNVKEEVTCPICLELLTQPLSLDCGHSFCQACLTANHKKSMLDKGESSCPVCRISYQPENIRPNRHVANIVEKLREVKLSPEGQKVDHCARHGEKLLLFCQEDGKVICWLCERSQEHRGHHTFLTEEVAREYQVKLQAALEMLRQKQQEAEELEADIREEKASWKTQIQYDKTNVLADFEQLRDILDWEESNELQNLEKEEEDILKSLTNSETEMVQQTQSLRELISDLEHRLQGSVMELLQGVDGVIKRTENVTLKKPETFPKNQRRVFRAPDLKGMLEVFRELTDVRRYWVDVTVAPNNISCAVISEDKRQVSSPKPQIIYQARGTLFTFQTLVNFNYCTGILGSQSITSGKHYWEVDVSKKTAWILGVCAGFQPDAMCNIEKNENYQPKYGYWVIGLEEGVKCSAFQDSSFHTPSVPFIVPLSVIICPDRVGVFLDYEACTVSFFNITNHGFLIYKFSHCSFSQPVFPYLNPRKCGVPMTLCSPSS [human TRIM5α, 330-340 = QARGTLFTFQTLV] | 0.287 ± 0.051
3 | MASGILVNVKEEVTCPICLELLTQPLSLDCGHSFCQACLTANHKKSMLDKGESSCPVCRISYQPENIRPNRHVANIVEKLREVKLSPEGQKVDHCARHGEKLLLFCQEDGKVICWLCERSQEHRGHHTFLTEEVAREYQVKLQAALEMLRQKQQEAEELEADIREEKASWKTQIQYDKTNVLADFEQLRDILDWEESNELQNLEKEEEDILKSLTNSETEMVQQTQSLRELISDLEHRLQGSVMELLQGVDGVIKRTENVTLKKPETFPKNQRRVFRAPDLKGMLEVFRELTDVRRYWVDVTVAPNNISCAVISEDKRQVSSPKPQIIYQARGTRYTFQSFVNFNYCTGILGSQSITSGKHYWEVDVSKKTAWILGVCAGFQPDAMCNIEKNENYQPKYGYWVIGLEEGVKCSAFQDSSFHTPSVPFIVPLSVIICPDRVGVFLDYEACTVSFFNITNHGFLIYKFSHCSFSQPVFPYLNPRKCGVPMTLCSPSS [human TRIM5α, 330-340 = QARGTRYTFQSFV] | 0.478 ± 0.036
4 | MASGILVNVKEEVTCPICLELLTQPLSLDCGHSFCQACLTANHKKSMLDKGESSCPVCRISYQPENIRPNRHVANIVEKLREVKLSPEGQKVDHCARHGEKLLLFCQEDGKVICWLCERSQEHRGHHTFLTEEVAREYQVKLQAALEMLRQKQQEAEELEADIREEKASWKTQIQYDKTNVLADFEQLRDILDWEESNELQNLEKEEEDILKSLTNSETEMVQQTQSLRELISDLEHRLQGSVMELLQGVDGVIKRTENVTLKKPETFPKNQRRVFRAPDLKGMLEVFRELTDVRRYWVDVTVAPNNISCAVISEDKRQVSSPKPQIIYGAPGTLFTFPSLTNFNYCTGILGSQSITSGKHYWEVDVSKKTAWILGVCAGFQPDAMCNIEKNENYQPKYGYWVIGLEEGVKCSAFQDSSFHTPSVPFIVPLSVIICPDRVGVFLDYEACTVSFFNITNHGFLIYKFSHCSFSQPVFPYLNPRKCGVPMTLCSPSS [human TRIM5α, 330-340 = GAPGTLFTFPSLT] | 16.3 ± 3

same assay, conditions: library: insertions and deletions

Row | Sequence | enrichment
5 | MASGILVNVKEEVTCPICLELLTQPLSLDCGHSFCQACLTANHKKSMLDKGESSCPVCRISYQPENIRPNRHVANIVEKLREVKLSPEGQKVDHCARHGEKLLLFCQEDGKVICWLCERSQEHRGHHTFLTEEVAREYQVKLQAALEMLRQKQQEAEELEADIREEKASWKTQIQYDKTNVLADFEQLRDILDWEESNELQNLEKEEEDILKSLTNSETEMVQQTQSLRELISDLEHRLQGSVMELLQGVDGVIKRTENVTLKKPETFPKNQRRVFRAPDLKGMLEVFRELTDVRRYWVDVTVAPNNISCAVISEDKRQVSSPKPTRYQTFVNFNYCTGILGSQSITSGKHYWEVDVSKKTAWILGVCAGFQPDAMCNIEKNENYQPKYGYWVIGLEEGVKCSAFQDSSFHTPSVPFIVPLSVIICPDRVGVFLDYEACTVSFFNITNHGFLIYKFSHCSFSQPVFPYLNPRKCGVPMTLCSPSS [human TRIM5α, 8-codon deletion at 326] | 0.37 ± 0.058
6 | MASGILVNVKEEVTCPICLELLTQPLSLDCGHSFCQACLTANHKKSMLDKGESSCPVCRISYQPENIRPNRHVANIVEKLREVKLSPEGQKVDHCARHGEKLLLFCQEDGKVICWLCERSQEHRGHHTFLTEEVAREYQVKLQAALEMLRQKQQEAEELEADIREEKASWKTQIQYDKTNVLADFEQLRDILDWEESNELQNLEKEEEDILKSLTNSETEMVQQTQSLRELISDLEHRLQGSVMELLQGVDGVIKRTENVTLKKPETFPKNQRRVFRAPDLKGMLEVFRELTDVRRYWVDVTVAPNNISCAVISEDKRQVSSPKPQIIYGARFVNFNYCTGILGSQSITSGKHYWEVDVSKKTAWILGVCAGFQPDAMCNIEKNENYQPKYGYWVIGLEEGVKCSAFQDSSFHTPSVPFIVPLSVIICPDRVGVFLDYEACTVSFFNITNHGFLIYKFSHCSFSQPVFPYLNPRKCGVPMTLCSPSS [human TRIM5α, 6-codon deletion at 333] | 1.72 ± 1.9
7 | MASGILVNVKEEVTCPICLELLTQPLSLDCGHSFCQACLTANHKKSMLDKGESSCPVCRISYQPENIRPNRHVANIVEKLREVKLSPEGQKVDHCARHGEKLLLFCQEDGKVICWLCERSQEHRGHHTFLTEEVAREYQVKLQAALEMLRQKQQEAEELEADIREEKASWKTQIQYDKTNVLADFEQLRDILDWEESNELQNLEKEEEDILKSLTNSETEMVQQTQSLRELISDLEHRLQGSVMELLQGVDGVIKRTENVTLKKPETFPKNQRRVFRAPDLKGMLEVFRELTDVRRYWVDVTVAPNNISCAVISEDKRQVSSPPQIIYGARGTRYQTFVNFNYCTGILGSQSITSGKHYWEVDVSKKTAWILGVCAGFQPDAMCNIEKNENYQPKYGYWVIGLEEGVKCSAFQDSSFHTPSVPFIVPLSVIICPDRVGVFLDYEACTVSFFNITNHGFLIYKFSHCSFSQPVFPYLNPRKCGVPMTLCSPSS [human TRIM5α, 1-codon deletion at 324] | 1.15 ± 0.23
8 | MASGILVNVKEEVTCPICLELLTQPLSLDCGHSFCQACLTANHKKSMLDKGESSCPVCRISYQPENIRPNRHVANIVEKLREVKLSPEGQKVDHCARHGEKLLLFCQEDGKVICWLCERSQEHRGHHTFLTEEVAREYQVKLQAALEMLRQKQQEAEELEADIREEKASWKTQIQYDKTNVLADFEQLRDILDWEESNELQNLEKEEEDILKSLTNSETEMVQQTQSLRELISDLEHRLQGSVMELLQGVDGVIKRTENVTLKKPETFPKNQRRVFRAPDLKGMLEVFRELTDVRRYWVDVTVAPNNISCAVISEDKRQVSSPKPQIIRGTRYQTFVNFNYCTGILGSQSITSGKHYWEVDVSKKTAWILGVCAGFQPDAMCNIEKNENYQPKYGYWVIGLEEGVKCSAFQDSSFHTPSVPFIVPLSVIICPDRVGVFLDYEACTVSFFNITNHGFLIYKFSHCSFSQPVFPYLNPRKCGVPMTLCSPSS [human TRIM5α, 3-codon deletion at 329] | 1.17 ± 0.26
9 | MASGILVNVKEEVTCPICLELLTQPLSLDCGHSFCQACLTANHKKSMLDKGESSCPVCRISYQPENIRPNRHVANIVEKLREVKLSPEGQKVDHCARHGEKLLLFCQEDGKVICWLCERSQEHRGHHTFLTEEVAREYQVKLQAALEMLRQKQQEAEELEADIREEKASWKTQIQYDKTNVLADFEQLRDILDWEESNELQNLEKEEEDILKSLTNSETEMVQQTQSLRELISDLEHRLQGSVMELLQGVDGVIKRTENVTLKKPETFPKNQRRVFRAPDLKGMLEVFRELTDVRRYWVDVTVAPNNISCAVISEDKRQVSSPKPQIGTRYQTFVNFNYCTGILGSQSITSGKHYWEVDVSKKTAWILGVCAGFQPDAMCNIEKNENYQPKYGYWVIGLEEGVKCSAFQDSSFHTPSVPFIVPLSVIICPDRVGVFLDYEACTVSFFNITNHGFLIYKFSHCSFSQPVFPYLNPRKCGVPMTLCSPSS [human TRIM5α, 5-codon deletion at 328] | 0.31 ± 0.083
